{
  "source": "the supplement of paper PMC11417369",
  "note": "This is one part of the list.",
  "data": [
    {"system": "PfSIP2 AP2 domain 1 (GST-tagged)", "test": "gcPBM binding intensity (ln(normalized median fluorescence intensity)); higher = stronger DNA binding", "how_it_was_run": "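Binding intensity is the highest Masliner-normalised natural-log median intensity over replicate spots in either probe orientation. To obtain it, GST-tagged P. falciparum DNA-binding domains made in E. coli were incubated for 1 h on an Agilent 4 × 180k array of primer-extended double-stranded 36-bp intergenic genomic probes plus negative controls. Detection used Alexa488 anti-GST antibody with scanning at 488 nm.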", "values": [
      {"sequence": "TGTAATCAAAAAAATAGTACATAAATTGTGTATACT [XGTACX_site5908]", "gcPBM binding intensity (ln)": 6.96},
      {"sequence": "TAATAAATAAATGACACACACACACGCAAAAAAAAA [CACACA_site7275]", "gcPBM binding intensity (ln)": 7.06},
      {"sequence": "TAGATTTTTATGCGTGCACACATTTAAAAAAAAAAC [CACACA_site3421]", "gcPBM binding intensity (ln)": 8.88},
      {"sequence": "ATACCTACATACATACGTACATATATATATATAATG [XGTACX_site234]", "gcPBM binding intensity (ln)": 7.52},
      {"sequence": "TTTTAATAAATTCAAAACATAAAAAGGAAAAAAAAA [XGTACX_negctrl_site471]", "gcPBM binding intensity (ln)": 6.65},
      {"sequence": "AAATATAATAACATAACACACACATGTATTTATAGG [CACACA_site8009]", "gcPBM binding intensity (ln)": 6.83},
      {"sequence": "TATAATGAGAAGATATAATATATAGGGGGTAATTCT [GTGCAC_negctrl_site228]", "gcPBM binding intensity (ln)": 6.83},
      {"sequence": "TTTTTTTCATAAGAAGCACACAAAAAATGATAGAGA [CACACA_site8401]", "gcPBM binding intensity (ln)": 7.56},
      {"sequence": "ATATATATATATATATGTACTTATTTGTATAAATAC [XGTACX_site8031]", "gcPBM binding intensity (ln)": 9.32},
      {"sequence": "ATTCTTTATTATTCGCCACACACATATATATATATA [CACACA_site9009]", "gcPBM binding intensity (ln)": 9.44},
      {"sequence": "TATTGGAAAATTAGAAGTACTTTCATATATTAGACT [XGTACX_site4503]", "gcPBM binding intensity (ln)": 7.1},
      {"sequence": "TTTTTATTATTCCATAGTACAGAAAAAATGATATAT [XGTACX_site3431]", "gcPBM binding intensity (ln)": 7.14},
      {"sequence": "CATATGTCTTGAGATCGTACGTTATTTTTTTTATTT [XGTACX_site1381]", "gcPBM binding intensity (ln)": 6.91},
      {"sequence": "TGGTAAATTTACCGTTGTACATTCATTTATAACATT [XGTACX_site8910]", "gcPBM binding intensity (ln)": 7.03},
      {"sequence": "AAAAATTATATATATATATATATATATATATGTATA [GTGCAC_negctrl_site488]", "gcPBM binding intensity (ln)": 7.77},
      {"sequence": "AAGAATATTAATATAAATAAGTAAATAAATAAATAA [CACACA_negctrl_site417]", "gcPBM binding intensity (ln)": 6.99},
      {"sequence": "TATAAATTTAAAATGACACACACTAAAATTATTTAA [CACACA_site1239]", "gcPBM binding intensity (ln)": 6.72},
      {"sequence": "TATATATATATATATATATATATATATATATGTATA [TGCATGCA_negctrl_site17]", "gcPBM binding intensity (ln)": 9.32},
      {"sequence": "GTATTATTATTATGCACACAAAAATATTTATACATA [CACACA_site3656]", "gcPBM binding intensity (ln)": 7.64},
      {"sequence": "ACATACACATATACATGTACATATATATATATATAT [XGTACX_site5082]", "gcPBM binding intensity (ln)": 9.71},
      {"sequence": "CTATTTCAATTTAGTGCACACATTTTAATTTATAAG [CACACA_site2040]", "gcPBM binding intensity (ln)": 10.5},
      {"sequence": "CATTATTATTAACATACACACGTGTTAAATACACCC [CACACA_site6118]", "gcPBM binding intensity (ln)": 7.25},
      {"sequence": "TATGAAAAGATATATACACACATAATAAAGGTATAT [CACACA_site7713]", "gcPBM binding intensity (ln)": 7.14},
      {"sequence": "ATTAAAACAAAATGTACACACATATCATTTAATGAC [CACACA_site6543]", "gcPBM binding intensity (ln)": 7.12},
      {"sequence": "TTTTAATCTTAATTATGTACATATAAAATGTGTATA [XGTACX_site7382]", "gcPBM binding intensity (ln)": 6.99},
      {"sequence": "ATATTCATTAACCACACACACAAAAAAAATAAAATT [CACACA_site3801]", "gcPBM binding intensity (ln)": 7.15},
      {"sequence": "ATATATGTATTTAATACACACAAAACTTTCATTCCA [CACACA_site3531]", "gcPBM binding intensity (ln)": 6.9},
      {"sequence": "ATACATATATGCTTCTGTACACATAATTTATAAAAA [XGTACX_site7000]", "gcPBM binding intensity (ln)": 7.31},
      {"sequence": "TTTTTAGAAAGACATGCATGTAATAAAAATAAATAA [TGCATGCA_site685]", "gcPBM binding intensity (ln)": 7.1},
      {"sequence": "AATTTTGTTAAAAGGACACACAATTCAATATATTAA [CACACA_site647]", "gcPBM binding intensity (ln)": 6.99},
      {"sequence": "TACACGTTCTACATTTGTACTTAATTTATACATAAG [XGTACX_site1579]", "gcPBM binding intensity (ln)": 7.17},
      {"sequence": "TACGTCTTTTTTTTGGTGCATAATTTTTTTGTACAA", "gcPBM binding intensity (ln)": 10.9},
      {"sequence": "GCTATTAATTTATAAGCACACAATATAAATATATAT [CACACA_site2251]", "gcPBM binding intensity (ln)": 7.09},
      {"sequence": "ATTACATGATATATCACACACACATATAGATATATA [CACACA_site7352]", "gcPBM binding intensity (ln)": 7.27},
      {"sequence": "TATGTCGACATTTAAAGTACAAAAAAAAAAAAAAAA [XGTACX_site8985]", "gcPBM binding intensity (ln)": 7.13},
      {"sequence": "ATTTATTTAAACAAATCACACACAAATATATATACA [CACACA_site8622]", "gcPBM binding intensity (ln)": 7.14},
      {"sequence": "TATATTAAAATATTCACACACTAACGTAAATCATTG [CACACA_site5520]", "gcPBM binding intensity (ln)": 6.84},
      {"sequence": "TATATATGTGTTATATACCCTTTTTTATATATTAAT [XGTACX_negctrl_site313]", "gcPBM binding intensity (ln)": 6.91},
      {"sequence": "CATACATAGATATATACACACATACCTATAAATACA [CACACA_site6513]", "gcPBM binding intensity (ln)": 7.32},
      {"sequence": "TAAAAATCCACAAGCACACAAATGTACATATATATA [CACACA_site2462]", "gcPBM binding intensity (ln)": 7.36},
      {"sequence": "TATAAAAAGCATAACACACACATGTCAATATATATA [CACACA_site1111]", "gcPBM binding intensity (ln)": 7.34},
      {"sequence": "ATAGAACAGAAAAGGCGTACAATAATATGTAAACAA [XGTACX_site2828]", "gcPBM binding intensity (ln)": 7.53},
      {"sequence": "AAAAAAAAAATATGTACACACATATATAATACATAA [CACACA_site1639]", "gcPBM binding intensity (ln)": 7.21},
      {"sequence": "AGAAAAGAGAAAAGTAGTACAAAGGATCATTTAAAA [XGTACX_site5294]", "gcPBM binding intensity (ln)": 6.97},
      {"sequence": "TTAAGTCCGTTAACAGTGCATTTTTTCTTTTATGTA [GTGCAC_site9867]", "gcPBM binding intensity (ln)": 8.46},
      {"sequence": "ATTAAAAAAATATAAACACACAAAAAAAAAATATAC [CACACA_site1100]", "gcPBM binding intensity (ln)": 7.34},
      {"sequence": "TAATGAAAAAATAAAAGAATAAATAAATAAATAAAT [TGCATGCA_negctrl_site130]", "gcPBM binding intensity (ln)": 7.13},
      {"sequence": "AATAAAAAAAGTTTTTTTTTTTTTTAAACAATAGAC [CACACA_negctrl_site1061]", "gcPBM binding intensity (ln)": 7.37},
      {"sequence": "AATAACCACCAACACACACACATATATATATATATA [CACACA_site3540]", "gcPBM binding intensity (ln)": 9.48},
      {"sequence": "ATAATAATAATAAAAAGTACATTTAATTATATAGAA [XGTACX_site7742]", "gcPBM binding intensity (ln)": 6.95},
      {"sequence": "AAAAATTTAATGAAATGTACATATATGTTATTAATA [XGTACX_site6091]", "gcPBM binding intensity (ln)": 7.17},
      {"sequence": "TATATGTTTTAAAAGTGTACTTTAGTTTCAATTTTT [XGTACX_site4269]", "gcPBM binding intensity (ln)": 6.79},
      {"sequence": "AAGAATGTTAATAGTACACACAATTATTATATAAAT [CACACA_site3739]", "gcPBM binding intensity (ln)": 7.05},
      {"sequence": "TAAATGCACATATACACACACCCAATTTTAAGTTTT [CACACA_site7428]", "gcPBM binding intensity (ln)": 7.15},
      {"sequence": "ATACATATTACATGTTGTACTCCAACAAAAATGCCC [XGTACX_site3201]", "gcPBM binding intensity (ln)": 7.58},
      {"sequence": "TTAATTTCATTTTCTACACACCTATCCTTTTTTTTT [CACACA_site772]", "gcPBM binding intensity (ln)": 6.71}
    ]}
  ]
}
